From the antibiotic and cytotoxicity screens of Wong et al. (2023)
The other results are listed elsewhere or left out.

Assays:
[1] = test system: HSkMC (human skeletal muscle cells); experiment: cytotoxicity call (relative viability < 0.9); settings: 10 µM
[2] = test system: HepG2; experiment: cytotoxicity call (relative viability < 0.9); settings: 10 µM
[3] = test system: S. aureus RN4220; experiment: growth inhibition call (relative growth <= 0.2); settings: 50 µM

Cc1noc(C)c1NC(=O)N(C)C[C@@H]1Oc2ccc(NS(=O)(=O)c3c(C)noc3C)cc2C(=O)N([C@@H](C)CO)C[C@H]1C
cytotoxicity call [1]: inactive | cytotoxicity call [2]: inactive | growth inhibition call [3]: inactive

O=C(C[C@@H]1CC[C@H]2NC[C@H](O)COC[C@@H]2O1)NCCN1CCCCC1
cytotoxicity call [1]: inactive | cytotoxicity call [2]: inactive | growth inhibition call [3]: inactive

C[C@H]1CN([C@@H](C)CO)C(=O)c2ccccc2-c2ccccc2CO[C@@H]1CN(C)C(=O)Nc1cccc(F)c1
cytotoxicity call [1]: inactive | cytotoxicity call [2]: inactive | growth inhibition call [3]: inactive

CCN(CCO)CCCC(C)Nc1ccnc2cc(Cl)ccc12.O=S(=O)(O)O (stereo not given)
cytotoxicity call [1]: inactive | cytotoxicity call [2]: active | growth inhibition call [3]: inactive

Cc1noc(C)c1S(=O)(=O)N(C)C[C@H]1Oc2ccc(NC(=O)CCN3CCOCC3)cc2CC(=O)N([C@H](C)CO)C[C@H]1C
cytotoxicity call [1]: inactive | cytotoxicity call [2]: inactive | growth inhibition call [3]: inactive

CC(C)CC#Cc1ccc2c(c1)O[C@@H](CN(C)S(=O)(=O)c1cccc(F)c1)[C@@H](C)CN([C@@H](C)CO)S2(=O)=O
cytotoxicity call [1]: inactive | cytotoxicity call [2]: inactive | growth inhibition call [3]: inactive

COc1ccc(NC(=O)N(C)C[C@H]2Oc3ccc(NS(=O)(=O)c4c(C)noc4C)cc3CC(=O)N([C@H](C)CO)C[C@H]2C)cc1
cytotoxicity call [1]: inactive | cytotoxicity call [2]: inactive | growth inhibition call [3]: inactive

CC(=O)Nc1nnc(-c2ccno2)o1
cytotoxicity call [1]: inactive | cytotoxicity call [2]: inactive | growth inhibition call [3]: inactive

CN(C)CC#Cc1ccc([C@@H]2[C@@H](CO)N3C(=O)CN(C(=O)CN(C)C)C[C@@H]23)cc1
cytotoxicity call [1]: inactive | cytotoxicity call [2]: inactive | growth inhibition call [3]: inactive

CC(C)NC(=O)N1Cc2cc(C(=O)NC3CCCCC3)nc(-c3cccc(-c4cccnc4)c3)c2[C@@H]1CCO
cytotoxicity call [1]: inactive | cytotoxicity call [2]: inactive | growth inhibition call [3]: inactive
